In PubChem BioAssay AID1963576 (National Center for Advancing Translational Sciences (NCATS), 2024):
Out of some 46,000 compounds screened, about 60 (0.1%) were called active. Inconclusive results (about 3%) are left out. Calls follow the shape of the dose curve; as a rule, active = well fitted inhibition curve with a large enough effect; inconclusive = small, poorly fitted or top-dose-only effect; inactive = no such curve, though single readings can be large or run the other way. This is one part of the list.

test: Primary qHTS assay for Inhibitors of ovarian cancer metastasis using an organotypic tumor microenvironment (TME) model.; also: nearly all actives have a fitted effect of over 65% in size;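 as to activity change, negative = inhibition: plate controls were DMSO wells for no effect and tomatine positive control wells for full effect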; conditions: SKOV3ip1-GFP adhesion/invasion on 3D omental model, fluorescence; series mostly up to 45.8 µM; activity change, negative = inhibition: at the top concentration
How it was run: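 A 3D layer of primary human omental fibroblasts, mesothelial cells, fibronectin and collagen I, grown 48 hr, received SKOV3ip1-GFP cells in serum-free medium plus compounds at 0.36-46 umol/L. After 2 hr RT and 16 hr 37 C, fixed adherent GFP cells were counted; normalized to DMSO and tomatine.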

Activity change, negative = inhibition, inactive:
CCN(CC)CCOC(=O)c1ccc(NC(=O)c2cc3c(=O)n(CC)c4ccccc4c3s2)cc1 -11.5%, CCN1CCN(Cc2c(O)ccc3c(C)c(-c4ccc(OC)cc4)c(=O)oc23)CC1 -2.58%, Cc1cccc(NC(=O)c2cc(S(=O)(=O)NCCc3ccccc3)ccc2F)c1C -5.68%, COc1ccccc1C1c2c(-c3ccc(Cl)cc3)n[nH]c2C(=O)N1c1ccc(C)cc1 (configuration not stated) -8.12%, Cc1ccc(S(=O)(=O)N2CCC(C(=O)NCc3ccccc3Cl)CC2)cc1 -2.15%, N#Cc1ccc(-c2cccs2)nc1SCC(=O)Nc1cccc(C(F)(F)F)c1 -20.4%, CCCCCn1c(=O)[nH]c2cc(C(=O)Nc3ccc(F)c(F)c3)ccc2c1=O -8.92%, Cc1cc(SCC(=O)NCc2ccc(Cl)cc2)nc(=O)[nH]1 -16.2%, COc1ccccc1N1CCN(c2ncnc3c2nnn3C)CC1 2.06%, Oc1cc(O)cc(C=Cc2ccc(O)c(O)c2)c1 1.34%, CCOCCn1ccc2c(OCC(=O)Nc3ccc(C(N)=O)cc3)cccc2c1=O -2.34%, CC(C)c1ccc(CN(C(=O)c2cc3ccccc3oc2=O)C2CCS(=O)(=O)C2)cc1 (configuration not stated) -2.93%, COc1ccc(NC(=O)C2CCN(S(=O)(=O)c3cccc(-c4noc(C)n4)c3)CC2)cc1OC 1.75%, CC(C)c1ccc(S(=O)(=O)N2CCC(n3c(C(F)(F)F)nc4cccnc43)CC2)cc1 -20.6%, COC(=O)c1cc2occc2n1Cc1nc(-c2ccccc2)oc1C 4.58%, CN(C)c1ccc(CNC(=O)C2CCN(c3nc4ccccc4[nH]3)CC2)cc1 -8.59%, CCCc1nn2c(=O)cc(COC(=O)c3ccc(NC(=O)COc4ccc(F)cc4)cc3)nc2s1 -13.8%, Cc1cc(S(=O)(=O)N2CCN(Cc3noc(CCC(=O)N4CCCCC4)n3)CC2)ccc1F 3.9%, COc1ccc(C2NC(=O)N(C)C3=C2C(=O)N(c2ccc(Br)cc2)C3)cc1 (configuration not stated) -15.2%, CSc1ccc(CCNC(=O)NCc2noc3ccccc23)cc1 4.04%, COc1cccc(CNC(=O)c2cnc3sc(N4CCCC4)nn3c2=O)c1OC 0.344%, COc1ccc(Cn2c(CCC(=O)NCc3ccc(Cl)cc3)nc3cccnc32)cc1 0.966%, CCOC(=O)CC(NC(=O)CCc1c(C)nc2c(-c3ccccc3)c(C)nn2c1C)c1ccc(OC(C)C)cc1 (configuration not stated) -29.2%, Cc1cccc(NC(=O)Cn2cc(C(=O)C3CCCCC3)c3ccccc32)c1 -5.58%, COc1ccc(CNc2nc(-c3ccco3)nn2S(=O)(=O)c2ccc(Cl)cc2)cc1OC 6.31%, O=C(CSc1cn(CC(=O)N2CCCC2)c2ccccc12)Nc1ccc(Cl)cc1 10.6%, Cc1ccc(C(=O)NCC(c2ccc3c(c2)OCO3)N2CCOCC2)cc1C (configuration not stated) 1.38%, CCOC(=O)c1cc(S(=O)(=O)Nc2cc(OC)ccc2OC)[nH]n1 -5.05%, Cc1cc(C)n(-c2nnc(Nc3ccc(C)c(C)c3)c3ccccc23)n1 38.7%, Cc1cc(O)c(C(c2cccc(F)c2)N2CCN(c3ccccc3)CC2)c(=O)n1Cc1ccco1 (configuration not stated) 4.76%, COC(=O)c1c(NC(=O)CCCOc2cccc(C)c2)sc2c1CCC2 -2.3%, COc1ccc(-c2c(C#N)c(SCC(=O)Nc3ccccc3C)nc(C)c2C(=O)Nc2ccc(Cl)cc2)cc1 -1.17%, COc1ccc(NC(=O)Cn2c(SCc3ccc(C)cc3)nc3cccnc32)cc1OC -4.06%, Cc1ccc(C)c(CN2C(=O)c3ccccc3S(=O)(=O)c3ccc(C(=O)OCC4CCCO4)cc32)c1 (configuration not stated) 5.57%, Cc1cccc(-c2nn3c(=O)cc(CN4CCN(C(=O)/C=C/c5ccccc5)CC4)nc3s2)c1 4.34%, COc1ccccc1Nc1nc(-c2ccccc2F)nc2ccccc12 -0.205%, Cn1c(=O)[nH]c2cc(-c3noc(-c4ccc(Br)cc4)n3)ccc21 7.29%, CC(C)c1ccc(S(=O)(=O)c2nnn3c2nc(N2CCCC2)c2sccc23)cc1 2.55%, COc1ccc(C2c3cc(OC)c(OC)cc3CC(=O)N2c2ccc(C)cc2)cc1 (configuration not stated) 0.324%, COc1cc2c(C(=O)Nc3cc(OC)c(OC)c(OC)c3)cn(C)c(=O)c2cc1OC 0.162%, Cc1cnc(Nc2cccc(CN3CCOCC3)c2)nc1Nc1cccc(S(=O)(=O)NC(C)(C)C)c1 -28.4%, O=C(NCCN1CCN(c2cccc(Cl)c2)CC1)Nc1ccccc1 -26.2%, Cc1ccc(NC(=O)CSc2nnc3ccc4ccccc4n23)cc1 -10.9%, O=C(CC1N=C2c3ccccc3N=C(SCc3ccc(F)cc3)N2C1=O)NCc1ccc2c(c1)OCO2 (configuration not stated) 2.63%, CCC(Oc1ccccc1)C(=O)Nc1nnc(S(=O)(=O)N(CC)CC)s1 (configuration not stated) -11.8%, CCc1cnc2c(c1SCC(=O)NCc1ccccc1Cl)c(=O)n(C)c(=O)n2C 3.43%, CCc1ccc(NC(=O)c2cnn(-c3ccccc3)c2-n2cccc2)cc1 6.52%, Cc1cccc(NC(=O)c2ccc(-c3ccccc3)s2)c1 -1.01%, CCOC(=O)C1CCN(c2ncnc3c2nc2n3CCCCC2)CC1 1.06%, Cc1cccc(C(=O)NCC(c2ccco2)S(=O)(=O)c2cccs2)c1 (configuration not stated) -5.23%, Cc1cc(C)c(NC(=O)C2CCN(c3nc4ccccc4n4cccc34)CC2)c(C)c1 -4.05%

outcome, inactive:
Cc1ccccc1C(=O)Nc1cccc(OCc2cc(=O)n3c(C)csc3n2)c1, Cc1ccc(C)c(NC(=O)CN2CCSc3ccc(S(=O)(=O)N4CCCC4)cc32)c1, CCOC(=O)c1oc2ccc(S(=O)(=O)n3nc(-c4ccc(C)cc4)cc3N)cc2c1C, COc1cccc2sc(N(Cc3cccnc3)C(=O)c3ccc4c(c3)OCCO4)nc12, CC(NC(=O)C1CCN(S(=O)(=O)Cc2ccccc2)CC1)c1ccccc1 (configuration not stated), COc1ccc(Cl)cc1NC(=O)c1cc2c(=O)n3ccccc3nc2s1, CN(c1ccccc1)S(=O)(=O)c1ccc(NC(=O)c2nc(S(C)(=O)=O)ncc2Cl)cc1, O=C1Nc2ccccc2Oc2cc(Oc3ccccc3)ccc21, Cc1cccc(Cn2c(=O)n3nc(-c4ccccc4)nc3c3ccccc32)c1, CCC(C)c1ccc2oc(-c3ccc(NC(=O)c4cc5ccccc5o4)cc3)nc2c1 (configuration not stated), CCc1ccc(NC(=O)c2ccc(-c3ccccc3)s2)cc1
